# According to PubChem BioAssay AID463173 (ICCB-Longwood Screening Facility, Harvard Medical School, 2010):
# Out of some 52,000 compounds screened, about 4,300 (8.3%) were called active. Cut-off read from the data, not from the text of the source: active = survival mostly below about 52% (no sharp cut-off); inactive = mostly above about 56%. This is one part of the list.
# Test system: DeltatarO mutant
# Experiment: S. aureus survival, RN4220 and DeltatarO strains – OD600, teichoic acid synthesis inhibitors, primary screen (AID 463173)
# Conditions: S. aureus RN4220 wild type/DeltatarO growth, OD600, 18 h, stronger effect = lower value, screened at 18.75 µg/mL (by protocol)
row,Compound,survival
1,Cc1ccc(NC(=O)c2oc3ccccc3c2NC(=O)c2cc3ccccc3o2)cc1,inactive: 94%
2,O=C(CSc1cn(CCNC(=O)c2c(F)cccc2F)c2ccccc12)Nc1ccc2c(c1)OCCO2,inactive: 83%
3,CCOc1ccccc1NC(=O)Cn1cnc2onc(-c3ccc(F)cc3)c2c1=O,inactive: 87%
4,O=C(OCc1cc(=O)n2nc(C3CC3)sc2n1)c1ccc(F)cc1,inactive: 89%
5,Cc1cc(C)cc(NS(=O)(=O)c2ccc3[nH]cc(C(=O)N4CCCC4)c(=O)c3c2)c1,inactive: 90%
6,COc1ccc(-n2c(=O)c3ccc(C(=O)NCc4ccc(C)cc4)cc3n(CC(=O)Nc3ccc(F)cc3)c2=O)cc1,inactive: 66%
7,N#C/C(=C\c1ccc(Cl)cc1)c1nc2ccccc2[nH]1,inactive: 57%
8,Cc1cccc(NC(=O)CSc2nc3c([nH]c4ccccc43)c(=O)n2C)c1C,inactive: 80%
9,CCOc1ccc(NC(=O)c2ccc(-c3nc(COc4ccccc4)c(C)o3)cc2)cc1,inactive: 80%
10,O=C(NCCc1csc(-c2cccc(F)c2)n1)c1cccs1,inactive: 79%
11,O=C(Cc1ccccc1)Nc1sc2c(c1C(=O)Nc1ccc(Cl)cc1)CCCC2,inactive: 47%
12,Cc1ccc(-c2noc(CN3C(C)CCCC3C)n2)cc1 (stereo unspecified),inactive: 80%
13,Cc1cc(C)cc(OC(=O)c2snnc2C)c1,inactive: 94%
14,COC1(OC)CCCc2c1no[n+]2[O-],inactive: 81%
15,COc1ccccc1CNC(=O)Cn1ncc2c3ccccc3n(Cc3ccccc3C)c2c1=O,inactive: 66%
16,CC(NC(=O)Nc1ccccc1C(F)(F)F)c1c(-n2cccc2)sc2c1CCCC2 (stereo unspecified),inactive: 104%
17,COc1ccccc1NC(=O)CSc1oc(-c2cccs2)nc1S(=O)(=O)c1ccc(Br)cc1,inactive: 68%
18,CCOC(=O)c1ccc(NS(=O)(=O)c2ccc(Br)s2)cc1,active: 38%
19,CN(C(=O)CSc1nc2c(c(=O)[nH]1)CCCC2)c1ccccc1,inactive: 61%
20,COc1ccc(-c2nc(SCC(=O)Nc3ccc4c(c3)OCO4)c(-c3ccc(OC)cc3)[nH]2)cc1,inactive: 81%
21,CCOc1ccc(S(=O)(=O)N2CCN(c3c(C)cccc3C)CC2)c2ccccc12,inactive: 57%
22,CCOc1ccccc1NC(=O)C1CCN(S(=O)(=O)c2ccccc2)CC1,inactive: 49%
23,Cc1cc(Cl)c2cccc(Br)c2n1,inactive: 110%

row,Compound,survival
1,Cc1ccc(C(=O)ON=C2CCN(C)CC2)cc1,inactive: 107%
2,O=C(NC(Nc1ncccn1)C(=O)c1ccccc1)c1ccccc1 (stereo unspecified),inactive: 107%
3,COc1cc(NC(=O)Cn2ncc3c([nH]c4ccc(C)cc43)c2=O)cc(OC)c1OC,inactive: 86%
4,COc1cc(C(=O)Nc2ccc3oc(-c4ccccc4)nc3c2)cc(OC)c1OC,inactive: 51%
5,O=C1Nc2ccc(S(=O)(=O)Nc3ccccc3O)c3cccc1c23,inactive: 62%
6,COc1cc(Cl)c(C)cc1NC(=O)CSc1ncc(S(=O)(=O)c2ccc(C(C)(C)C)cc2)c(=O)[nH]1,inactive: 126%
7,COc1ccc(NC(=O)CSc2nnc(-c3cccs3)o2)cc1,inactive: 54%
8,CCOc1ccccc1Nc1cc(-c2ccccc2)nc(C)n1,inactive: 60%
9,CCCOc1ccc(-c2nn(-c3ccccc3)cc2C2NC(=O)NC(C)=C2C(=O)OC)cc1C (stereo unspecified),inactive: 72%
10,CCC(=O)N1CCc2cc(Br)cc(S(=O)(=O)CCC(=O)NCCc3ccc(Cl)cc3)c21,inactive: 70%
11,Cc1ccccc1CNC(=O)C1CCCN(S(=O)(=O)N(C)c2ccc(F)cc2)C1 (stereo unspecified),inactive: 84%
12,CCOc1ccccc1NC(=O)Nc1nnc(N2CCCCCC2)s1,inactive: 82%
13,CN(C)c1ccc(-n2nc3ccc4ccccc4c3n2)cc1,inactive: 102%
14,CC(C)CCN(Cc1ccco1)C(=O)c1cc2c(Cl)nc3ccccc3c2s1,inactive: 68%
15,Cc1ccc(S(=O)(=O)CC(=O)Nc2sc3c(c2C#N)CCCCC3)cc1,inactive: 72%
16,O=C(O)/C=C/C(=O)Nc1nnc(-c2ccccc2F)s1,inactive: 97%
17,COc1ccc(-c2noc(CSCC(=O)Nc3cccc(C(F)(F)F)c3)n2)cc1OC,inactive: 88%
18,CCOc1ccc(C2Nc3ccccc3-c3nnc(SCc4ccccc4)nc3O2)cc1OC (stereo unspecified),inactive: 50%
19,CC(Oc1ccccc1)C(=O)Nc1ccccc1 (stereo unspecified),inactive: 96%
20,COc1ccc(Cn2c(C(=O)O)c(CNC3CCCCCC3)c3ccc(OC)cc32)cc1,inactive: 115%
21,C=Cn1cc[n+](CC(=O)c2ccc(C)cc2)c1,inactive: 102%
22,O=C(/C=C/c1ccc(F)cc1)Nc1nc2n(n1)C(c1ccc(Cl)cc1)C=C(c1ccccc1)N2 (stereo unspecified),active: 33%
23,COc1ccc(OC)c(CNC(=O)CCn2c(=O)c3cccn3c3ccc(F)cc32)c1,inactive: 58%

row,Compound,survival
1,COC(=O)c1ccccc1NC(=O)Cn1nnc2sc(-c3ccccc3)cc2c1=O,inactive: 52%
2,CCc1ccc(-c2nn(CC(=O)NC3CCCC3)c3c2cnc2ccc(F)cc23)cc1,inactive: 105%
3,COc1ccc(-c2nc(-c3ccccc3)c(-c3ccc(O)cc3)[nH]2)cc1,active: 1%
4,COc1ccccc1CNS(=O)(=O)c1cc2c3c(c1)CCN3C(=O)CC2,inactive: 77%
5,CC1=CC(C)(C)Nc2ccc(OC(=O)c3ccco3)cc21,inactive: 71%
6,COc1ccccc1C(=O)NCCn1cc(SCc2ccccc2Cl)c2ccccc21,active: 34%
7,COc1ccccc1C(=O)Nc1nc(-c2ccccc2)ns1,active: 45%
8,Cc1ccc(S(=O)(=O)N2CCCC(NC(=O)N3CCN(c4ccccc4)CC3)C2)cc1 (stereo unspecified),inactive: 102%
9,COc1ccc(C(=O)n2nc(-c3ccco3)nc2NCc2cccs2)cc1,inactive: 63%
10,C=Cc1ccc(CN2C(=O)N(c3cccc(Cl)c3)S(=O)(=O)c3ccccc32)cc1,inactive: 64%
11,Cc1ccc2c(=O)c(C(=O)c3cccc(Cl)c3)cn(CC(=O)NCc3ccc(F)cc3)c2n1,inactive: 63%
12,Cc1noc(/C=C/c2ccco2)c1S(=O)(=O)N1CCC(C(=O)Nc2ccc(F)c(Cl)c2)CC1,inactive: 100%
13,COc1ccc(-n2ncc3c(NCCC4=CCCCC4)ncnc32)cc1,inactive: 92%
14,Cc1ccccc1-c1nc(CS(=O)(=O)CC(=O)NCc2cccc(Cl)c2)c(C)o1,inactive: 106%
15,CCC1=Nc2cc(C(=O)NC3CCCC3)ccc2Sc2ccc(Br)cc21,active: 44%
16,Cn1c(-c2ccccc2)c(CCO)c2ccccc21,inactive: 105%
17,Cc1ccc(NC(=O)N2CCc3cc(S(=O)(=O)N4CCC(C)CC4)ccc32)cc1C,inactive: 74%
18,CC1Cc2cc(S(=O)(=O)NCc3ccccc3Cl)ccc2N1C(=O)C1CCC1 (stereo unspecified),inactive: 80%
19,CCN(C(=O)c1cc2c(s1)-c1ccccc1OC2)c1cc(Cl)ccc1OC,active: 15%
20,CCOC(=O)c1ccc(Nc2ncnc3c2cnn3-c2cccc(Cl)c2)cc1,inactive: 75%
21,NC(=O)c1cccc(S(=O)(=O)N2CCCCC2)c1,inactive: 94%
22,Cc1ccccc1NS(=O)(=O)c1nnc(NC(=O)c2ccccc2C)s1,inactive: 76%
23,O=S(=O)(NCCS(=O)(=O)N1CCN(c2ccccc2F)CC1)c1ccc(Cl)cc1,inactive: 82%

row,Compound,survival
1,O=C(NCc1cccc(Cl)c1)C(=O)Nc1ccc2nc3n(c(=O)c2c1)CCCCC3,inactive: 105%
2,CCCCN1CCCc2cc(CN(CCCN3CCOCC3)C(=O)Nc3ccc(OCC)cc3)ccc21,inactive: 96%
3,O=C(NCc1ccco1)c1ccc(COCC(F)(F)C(F)F)cc1,inactive: 99%
4,Cc1cc(C)nc(N2CCC(C(=O)Nc3nnc(C(C)C)s3)CC2)n1,inactive: 83%
5,COc1cccc(CN2CCc3nc(SCC(=O)Nc4ccccc4)[nH]c(=O)c3C2)c1,inactive: 81%
6,COc1ccc(C)cc1Nc1c2c(nc3nc(-c4cccs4)nn13)CCCC2,inactive: 91%
7,CCN(CC)S(=O)(=O)c1ccc2c(c1)N(CC(=O)N1CCN(c3ccccc3F)CC1)C(=O)CO2,inactive: 81%
8,COc1cc(Nc2nc3ccccc3c3nnc(C)n23)cc(OC)c1,active: 37%
9,CCc1c(C)nc2nncn2c1Nc1ccc(C(C)C)cc1,inactive: 69%
10,Cc1ccc(NC(=O)/C(C#N)=C/c2cc(C)n(-c3ccc(F)cc3)c2C)cc1C,inactive: 65%
11,CCc1ccc(NC(=O)Cn2c3ncccc3c(=O)n2-c2ccc(C)c(C)c2)cc1,inactive: 69%
12,O=C(c1ccc2c(c1)N(Cc1ccccc1F)C(=O)c1ccccc1S2=O)N1CCN(c2ccccc2)CC1 (stereo unspecified),inactive: 85%
13,Cc1ccc(CNC(=O)c2ccc(-n3cnc4cccnc43)cc2)cc1,inactive: 116%
14,N#CC1(Nc2ccccc2Cl)C(=O)Nc2ccccc21 (stereo unspecified),inactive: 69%
15,COc1ccc(N2CCN(C(=O)CCn3c(=O)c4cccn4c4cccnc43)CC2)cc1,inactive: 80%
16,CCOC(=O)c1ccc(NC(=O)c2ncn(-c3ccccc3)n2)cc1,inactive: 99%
17,CCN(CC)c1ccc(C(=O)N2CCC(c3c[nH]c4ccccc34)(c3c[nH]c4ccccc34)CC2)cc1,inactive: 104%
18,CCn1c(SCC(=O)OC)nnc1-c1ccc(O)cc1,inactive: 99%
19,O=C(NC1CCN(Cc2ccccc2)CC1)c1ccc(Cn2c(=O)c3ccccc3n(Cc3ccccc3)c2=O)cc1,inactive: 100%
20,Cc1ccc(-c2nc(-c3cc4cccc(OCc5cccc(C)c5)c4oc3=O)no2)cc1,inactive: 58%
21,CNC(=S)N(Cc1ccco1)Cc1cc2cc(C)ccc2n2nnnc12,inactive: 71%
22,CC(C)(C)OC(=O)N1CCC(c2c(C(=O)NCCN3CCC(Cc4ccccc4)CC3)cnn2-c2ccccc2)CC1,inactive: 80%
